Reference: PubChem BioAssay AID1240 (Sanford-Burnham Center for Chemical Genomics, 2008)
Out of some 50,000 compounds screened, about 800 (1.6%) showed an effect of 50% or more. This is one part of the list.

These molecules were tested against Bcl-2-like protein 10 (Homo sapiens) (UniProt Q9HD36) (assay: TR3 peptide-Bcl-B binding displacers, biochemical primary FP assay, phenotype converters (AID 1240;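 also: 0% = Bcl-B with tracer peptide and DMSO and 100% = tracer peptide lacking Bcl-B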)). Conditions: GST-Bcl-B / FITC-TR3 peptide fluorescence polarization; stronger effect = higher value; compound at 3.75 mg/L.
Sequence of UniProt Q9HD36 (Q9HD36 whole entry, looked up): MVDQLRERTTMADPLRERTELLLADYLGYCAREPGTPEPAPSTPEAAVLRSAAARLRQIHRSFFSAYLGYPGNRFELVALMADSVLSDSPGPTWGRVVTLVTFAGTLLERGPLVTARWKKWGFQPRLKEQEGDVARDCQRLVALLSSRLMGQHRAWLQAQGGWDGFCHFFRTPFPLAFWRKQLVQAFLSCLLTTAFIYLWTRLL

Row | Compound | displacement [%]
1 | CCC(C(=O)O)P(=O)(c1ccccc1)c1ccccc1 (stereo not given) | 11.9
2 | CCN(CC)CCCOc1cccc(OC)c1 | 8.5
3 | COc1ccc(-n2c(SCC(=O)c3ccccc3)nc(O)c(Cc3ccccc3)c2=O)cc1 | 4.9
4 | CCOC(=O)Nc1ccc2c(c1)N(C(=O)OCC)c1ccccc1CC2 | -8.1
5 | O=C(Nc1ccncc1)c1cc(-c2ccccc2)nc2ccccc12 | 21.1
6 | CCOC(=O)c1c(C)[nH]c2ccc(OC(C)=O)cc12 | 5.3
7 | O=C(Nc1ccc2oc(-c3cccc(Cl)c3Cl)nc2c1)c1ccccc1Cl | -0.3
8 | CCC(=O)Nc1ccc(-c2nc3ccccc3s2)cc1 | 17.5
9 | COc1ccc(C(=O)Nc2ccccc2)cc1NC(=O)c1c(OC)cccc1OC | 11.8
10 | COc1ccc(CCNC(=O)C2CC2(c2ccccc2)c2ccccc2)cc1OC (stereo not given) | -7
11 | CCOC(=O)c1c(NC(=O)c2ccc(C)c(C)c2)sc(C(C)=O)c1C | -4.7
12 | CC(C)c1ccc(N2C(=O)/C(=C/c3cc(Cl)c(O)c(Cl)c3)C(=O)NC2=S)cc1 | -6.6
13 | CC(=O)c1ccc(NC(=O)C2CC(=O)N(c3cc(C)ccc3C)C2)cc1 (stereo not given) | 11.9
14 | COC(=O)c1sc(NC(=O)CC(C)C)c(C(=O)OC)c1C | -6.2
15 | O=C(O)c1cc(-c2cccnc2)nc2ccc(Br)cc12 | 9.8
16 | CCn1c2ccccc2c2cc(CN3CCN(Cc4cccc([N+](=O)[O-])c4)CC3)ccc21 | -11.3
17 | CCOc1cc(/C=C2/SC(=S)N(C)C2=O)ccc1OC(=O)c1ccc(C)cc1 | 62.3
18 | Cc1cc(NC(=O)c2cccc(Br)c2)ccc1-c1cc2ccccc2oc1=O | 6.5
19 | NS(=O)(=O)c1ccc(CCNC(=O)NC2CCCCC2)cc1 | 3.6
20 | Cc1ccc(S(=O)(=O)N2CCCC2C(=O)N2CCCCC2)cc1 (stereo not given) | -3.9
21 | Cc1cc(C)cc(CSCC(=O)O)c1 | 10.2
22 | O=C(O)c1ccc(/C=N/N2CCN(Cc3cccc4ccccc34)CC2)cc1 | -5.8
23 | Cc1ccc(C)c(N2C(=O)C3C(C2=O)N2CCCN2C3c2ccccc2)c1 (stereo not given) | 1.4
24 | O=C1/C(=C\c2cccc(C(F)(F)F)c2)SC(=S)N1Cc1ccccc1 | 11

Row | Compound | displacement [%]
25 | Cc1ccc(OC(=O)COc2ccc(Cl)cc2Cl)cc1 | -1.2
26 | O=C(O)c1ccc(N=Cc2ccc([N+](=O)[O-])s2)cc1 | 1.1
27 | O=[N+]([O-])c1ccc2c(c1)c(-c1ccccc1)c(CO)n2Cc1ccccc1 | 33.3
28 | O=C(Nc1ccc(-c2nc3ccccc3[nH]2)cc1)c1ccccc1 | 0.3
29 | Cc1ccc(C(=O)O)cc1NC(=O)C1CCCCC1C(=O)O (stereo not given) | -9.6
30 | CCOc1ccc(CN2CCN(C(=O)c3ccccc3OC)CC2)cc1 | -21.7
31 | C(=N\N1CCN(c2ccccn2)CC1)/c1ccco1 | -0.3
32 | COc1ccccc1/C=N/N1C(=O)c2cccc3cccc(c23)C1=O | 6.2
33 | CCOC(=O)C1=C(C)N=C2SCC(=O)N2C1c1ccc(Cl)cc1 (stereo not given) | 7.4
34 | CSC1=C(C#N)C(c2ccc(Br)cc2)CC(=O)N1 (stereo not given) | -2.7
35 | COc1ccc(CC(=O)Nc2ccc(Cl)cc2C)cc1OC | -4.4
36 | COc1ccc(N2C(=O)c3ccccc3NC2c2ccc(OC)c(COc3ccc(NC(C)=O)cc3)c2)cc1 (stereo not given) | 10.9
37 | COC(=O)C1=C(O)/C(=C/c2cc(C)n(-c3ccc(Cl)cc3Cl)c2C)N=C1C | 13.1
38 | CCc1ccc(NC(=O)COc2ccc(C)c(C)c2)cc1 | -2.9
39 | Cc1ccccc1OCC(O)CNS(=O)(=O)c1ccccc1C(=O)O (stereo not given) | -13
40 | CSC1=C(C#N)C(c2ccc(Cl)cc2)C2=C(CC(C)(C)CC2=O)N1 (stereo not given) | -9.2
41 | Cc1cccc(C(=O)N/C(=C/c2ccc(Br)cc2)C(=O)NN)c1 | -13.9
42 | O=C(CN(c1ccc(F)cc1)S(=O)(=O)c1ccccc1)Nc1ccccc1Br | -0.6
43 | COCCCNC(=O)Cc1ccc(OC)c(OC)c1 | 10
44 | COc1ccc(C2/C(=C(/O)c3ccc(Cl)cc3)C(=O)C(=O)N2CCCC(=O)O)cc1 (stereo not given) | 3.2
45 | CCOc1cccc(C(=O)Nc2nnc(-c3cccc(OCC)c3)s2)c1 | 8.7
46 | COc1cc2c(cc1NC(=O)c1c(-c3ccccc3Cl)noc1C)oc1ccccc12 | -0.9
47 | Cc1ccc(C(=O)N/C(=C\c2cccc(Oc3ccccc3)c2)C(=O)NCCN2CCOCC2)cc1 | 7.8
48 | CCCN1C(=O)/C(=C/c2nc3ccccc3c(=O)n2Cc2ccccc2)c2ccccc21 | -8.3

Row | Compound | displacement [%]
49 | Cc1ccccc1C(=O)NN1C(=O)/C(=C\c2ccc(N(C)C)cc2)SC1=S | -58.6
50 | CCC1CCc2c(sc(NC(=O)COc3ccc(Cl)cc3Cl)c2C(N)=O)C1 (stereo not given) | 12.1
51 | NC(=O)c1ccc(NC(=O)c2cccc(I)c2)cc1 | -5.7
52 | COc1ccc(/C=N/n2cnnc2SC)cc1OC | 2.8
53 | O=C(O)CCN1C(=O)c2ccc(Oc3ccc([N+](=O)[O-])cc3)cc2C1=O | -20.9
54 | Cc1ccc2nc(NC(=O)C3CCCN3C(=O)OC(C)(C)C)sc2c1 (stereo not given) | 8
55 | CC(CN1CCCCC1)C(=O)c1ccccc1 (stereo not given) | 10
56 | COc1cccc(/C=N/Nc2nc(N3CCCCC3)nc(N3CCCCC3)n2)c1O | 3.8
57 | COc1ccc(C(=O)Nc2cc(C(=O)O)cc(C(=O)O)c2)cc1 | 28.6
58 | O=C(Nc1nc(-c2ccc([N+](=O)[O-])cc2)cs1)c1ccc(Cl)cc1 | 8.7
59 | O=C1C(=O)N(c2cccc([N+](=O)[O-])c2)C(c2ccccc2F)/C1=C(/O)c1ccccc1 (stereo not given) | 11.1
60 | Cc1cc2nc3s/c(=C/c4cn[nH]c4-c4ccccc4)c(=O)n3c2cc1C | 11.7
61 | COc1ccc(N=Cc2c(O)n(-c3cc(OC)ccc3OC)c(=O)[nH]c2=O)cc1 | 103
62 | Cc1nn(C2CCCCC2)c(N)c1C#N | -5.4
63 | CCN1CCN(C(=O)C2(C)CCCCC2)CC1 | -7.1
64 | Cc1cc(C(=O)NCc2ccco2)ccc1[N+](=O)[O-] | 3.8
65 | COc1ccc(CNC(=O)c2ccc(C3SCC(=O)N3Cc3ccccc3)cc2)cc1 (stereo not given) | -8.8
66 | CCN1CCN(c2nc(-c3ccc(Cl)cc3)nc3ccccc23)CC1 | 2
67 | Cc1ccc(C)c(NC(=S)NC(=O)c2ccco2)c1 | 2
68 | Cc1cccc(OCCCCCn2ccnc2)c1C | -5.9
69 | CCOc1ccccc1N1CCN(C(=O)/C=C/c2ccc(C(C)(C)C)cc2)CC1 | -3.8
70 | COc1ccc(-c2noc(COc3ccc(C)cc3Br)n2)cc1OC | 0
